# Reference: PubChem BioAssay (NCATS)
# Where “and” joins values, the source holds several entries; their conditions need not be identical. Equal entries are not always repeated. Inconclusive results, whose numbers are uncertain, are shown with a selection of clear calls. Potencies beside an inconclusive call are fits to weak or partial responses and may not hold up. Calls of active or inactive are those of the source. Calls follow the shape of the dose curve; as a rule, active = well fitted curve in the direction sought with a large enough effect; inconclusive = small, poorly fitted or top-dose-only effect, or another doubt; inactive = no such curve, though single readings can be large; an effect the other way counts as inactive or inconclusive.
# Tests used:
# [1] = Viability qHTS for spleen associated tyrosine kinase inhibitor (SYKi) naive MV4-11 cells (AID 1963823); conditions: MV4-11 AML viability, CellTiter-Glo luminescence, 72 h; viability (% of control): at 45 µM (top of the series); also: nearly all actives have a fitted effect of over 40% in size
# Summary of the method: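 CellTiter-Glo luminescence, 10 min room-temperature incubation, gave viability. Cells: naive MV4-11 (500/well), treated 72 hr at 37 C, 5% CO2.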
# [2] = Viability qHTS for spleen associated tyrosine kinase inhibitor (SYKi) drug resistant MV4-11 cells (AID 1963824); conditions: SYKi-resistant MV4-11 viability, CellTiter-Glo, 72 h; series mostly up to 45 µM; also: nearly all actives have a fitted effect of over 35% in size
# Summary of the method: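 SYK inhibitor-resistant MV4-11 AML cells, 500 per well, added to predispensed compounds and incubated 72 hr at 37 C, 5% CO2. Viability measured by CellTiter-Glo luminescence after 10 min at room temperature.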
# [3] = Cellular viability qHTS for adrenocortical cancer (ACC) cell line SW-13 (AID 1963989); conditions: SW-13 ACC cells viability, CellTiter-Glo, 48 h; activity (max response): stronger effect = lower value; also: nearly all actives have a fitted effect of over 65% in size;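 as to activity (max response): cells grown in serum-free medium with ITS supplement; % is scaled to controls: 0 for no effect and ±100 for the full control effect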
# Summary of the method: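 IC50 and maximal-response values come from four-parameter logistic fits of titration data. SW-13 cells in serum-free medium received compounds (up to 46 uM final) for 48 h before CellTiter-Glo luminescence.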
# Potency is read from the fitted curve at half-maximal effect; tags tell the direction and shape of the fitted curve.
SMILES,Potency [1],Potency [2],activity (max response) [3],Potency [3]
O=C(O)c1ccccc1-c1ccc(/C=c2\sc3nc4cc(Br)cnc4n3c2=O)o1,"inconclusive: 12.9 µM [cytotoxic, single point]","inconclusive: 12.9 µM [cytotoxic, partial curve]",inactive: -2.9%,
COc1cccc(-c2cc(F)ccc2C2Cc3nc(N)nc(C)c3C(=O)N2)n1 (stereo unspecified),"inconclusive: 0.0092 µM [cytotoxic, full curve]",active: 0.0186 µM,,active: 0.112 µM
CC(=O)Nc1ccc(C(=O)O)cc1,inactive,inactive,inactive: 11.7%,
COc1ccc(-c2cc(C(F)F)nn2-c2ccc(S(N)(=O)=O)cc2)cc1F,"inconclusive: 23.7 µM [cytotoxic, single point]","inconclusive: 33.5 µM [cytotoxic, single point]",inactive: -7.1%,
CC/C(=C(\c1ccccc1)c1ccc(OCCN(C)C)cc1)c1ccccc1,"inconclusive: 12.1 µM [cytotoxic, full curve] and inconclusive: 16.8 µM [cytotoxic, partial curve]",active: 10.8 µM and active: 18.8 µM,,"inconclusive: 23.1 µM [cytotoxic, single point]"
COc1c(C)cc(NC(=O)c2nn(Cc3ccc(F)cc3)c3c2CN(C(=O)c2ccc[nH]2)C[C@]3(C)C(N)=O)cc1C,inconclusive: 0.0003 µM,"inconclusive: 6.28 µM [cytotoxic, partial curve, poor fit]",inactive: -5.75%,
COc1cccc2c1C(=O)c1c(O)c3c(c(O)c1C2=O)C[C@@](O)(C(=O)CO)C[C@@H]3O[C@H]1C[C@H](N)[C@H](O[C@@H]2CCCCO2)[C@H](C)O1,active: 0.75 µM,active: 3.35 µM,,active: 0.731 µM
CN[C@@H](C)C(=O)N[C@H](C(=O)N1CCC[C@H]1C(=O)Nc1snnc1-c1ccccc1)C1CCCCC1,"inconclusive: 18.6 µM [cytotoxic, partial curve, poor fit]",active: 0.132 µM,,"inconclusive: 25.1 µM [cytotoxic, partial curve]"
C=CC(=O)N1CCC(Oc2cc3c(Nc4ccc(Cl)c(Cl)c4F)ncnc3cc2OC)CC1,active: 1.03 µM,active: 4.68 µM,,"inconclusive: 0.355 µM [cytotoxic, partial curve, poor fit]"
CC(CN(C)C)C(C)(O)Cc1ccc(Cl)cc1 (stereo unspecified),"inconclusive: 21.1 µM [cytotoxic, single point]","inconclusive: 33.5 µM [cytotoxic, single point]",inactive: 6.59%,
C=CC[C@@H]1/C=C(\C)C[C@H](C)C[C@H](OC)[C@H]2O[C@@](O)(C(=O)C(=O)N3CCCC[C@H]3C(=O)O[C@H](/C(C)=C/[C@@H]3CC[C@@H](O)[C@H](OC)C3)[C@H](C)[C@@H](O)CC1=O)[C@H](C)C[C@@H]2OC,active: 18.6 µM,active: 14.8 µM,,"inconclusive: 20 µM [cytotoxic, partial curve]"
CNC(=O)c1c(I)c(NC(C)=O)c(I)c(C(=O)O)c1I,inactive,inactive,inactive: 10%,
NC(=O)c1ccc2nc(-c3ccc(C4(N)CCC4)cc3)c(-c3ccccc3)n2n1,"inconclusive: 1.32 µM [cytotoxic, full curve, poor fit]","inconclusive: 4.17 µM [cytotoxic, full curve, poor fit]",,"inconclusive: 31.6 µM [cytotoxic, single point]"
O=C1CC[C@H](N2Cc3c(OCc4ccc(CN5CCOCC5)cc4)cccc3C2=O)C(=O)N1,"inconclusive: 0.0468 µM [cytotoxic, full curve, poor fit]","inconclusive: 14.8 µM [cytotoxic, partial curve, poor fit]",,"inconclusive: 25.1 µM [cytotoxic, single point]"
CCN(CC)CCNc1ccc(CO)c2sc3ccccc3c(=O)c12,"inconclusive: 7.5 µM [cytotoxic, partial curve]",active: 3.76 µM,,"inconclusive: 18.4 µM [cytotoxic, single point]"
C/C=C(/C(=C/C)c1ccc(O)cc1)c1ccc(O)cc1,"inconclusive: 33.5 µM [cytotoxic, single point] and inconclusive: 16.6 µM [cytotoxic, partial curve]","inconclusive: 33.5 µM [cytotoxic, single point] and active: 14.8 µM",,"inconclusive: 20.6 µM [cytotoxic, partial curve]"

SMILES,Potency [1],Potency [2],activity (max response) [3],Potency [3]
CC1(C)Cc2c(sc(NC(=S)NC(=O)c3ccccc3)c2C(=O)O)CO1,active: 14.8 µM,"inconclusive: 23.5 µM [cytotoxic, single point]",inactive: 11%,
CC/C(=C(/c1ccc(O)cc1)c1ccc(OCCNC)cc1)c1ccccc1,"inconclusive: 3.32 µM [cytotoxic, full curve]","inconclusive: 3.72 µM [cytotoxic, full curve]",,"inconclusive: 35.5 µM [cytotoxic, single point]"
CCNCCS(=O)(=O)NC[C@@]1(c2ccccc2)SC(NC(=O)C(C)(C)C)=NN1C(=O)C(C)(C)C,"inconclusive: 0.0037 µM [cytotoxic, full curve]",active: 0.003 µM,inconclusive: -79.8%,
C[N+](C)(C)CCOC(N)=O,inactive,inactive,,"inconclusive: 23.1 µM [cytotoxic, single point]"
CN1C(=O)[C@@H](NC(=O)c2cc(Cc3ccccc3)on2)COc2ccccc21,"inconclusive: 26.3 µM [cytotoxic, single point]","inconclusive: 29.5 µM [cytotoxic, single point]",,"inconclusive: 35.5 µM [cytotoxic, single point]"
CC(C)(CO)n1cc(C(=O)c2cncc(NC(=O)Cc3ccc(Cl)cn3)c2)c2cnc(N)nc21,"inconclusive: 2.95 µM [cytotoxic, full curve]","inconclusive: 8.33 µM [cytotoxic, partial curve]",inactive: -13.5%,
CC(=O)Nc1ccc(C(=O)NC(C)(C)C)cc1,"inconclusive: 5.8 µM [cytotoxic, single point] and inconclusive: 37.2 µM [cytotoxic, partial curve, poor fit]","inconclusive: 231 nM [cytotoxic, partial curve, poor fit] and inconclusive: 23.5 µM [cytotoxic, single point]",inactive: -16.7%,
N#Cc1cccc(-c2c[nH]c3ncnc(N4CCOCC4)c23)c1,"inconclusive: 13 µM [cytotoxic, partial curve] and inconclusive: 14.8 µM [cytotoxic, partial curve]","inconclusive: 20.6 µM [cytotoxic, partial curve] and inconclusive: 16.6 µM [cytotoxic, partial curve]",inactive: 9.94%,
CCN(CC)CCCN(c1ccccc1)C1Cc2ccccc2C1,"inconclusive: 33.5 µM [cytotoxic, single point]","inconclusive: 26.6 µM [cytotoxic, single point]",,"inconclusive: 18.4 µM [cytotoxic, single point]"
Cc1ccc(O)c2ncccc12,"inconclusive: 23.7 µM [cytotoxic, partial curve]","inconclusive: 33.5 µM [cytotoxic, single point]",inactive: 11.9%,
CC1(COc2ccc(CC3SC(=O)NC3=O)cc2)CCCCC1 (stereo unspecified),"inconclusive: 16.8 µM [cytotoxic, partial curve]","inconclusive: 26.6 µM [cytotoxic, single point]",,"inconclusive: 23.1 µM [cytotoxic, single point]"
NC(N)=Nc1nc(CSCC/C(N)=N/S(N)(=O)=O)cs1,inactive,"inconclusive: 8.41 µM [cytotoxic, partial curve, poor fit]",inactive: 9.53%,
Cn1cc(/C=C2\C(=O)Nc3cccnc32)c2ccccc21,"inconclusive: 0.332 µM [cytotoxic, full curve]","inconclusive: 0.332 µM [cytotoxic, full curve, poor fit]",,"inconclusive: 28.2 µM [cytotoxic, single point]"
CNc1nc(C)nc(N[C@H]2CCC[C@@H](C(=O)NCc3ccc(C#N)cc3C(F)(F)F)C2)n1,"inconclusive: 16.6 µM [cytotoxic, partial curve, poor fit]","inconclusive: 14.8 µM [cytotoxic, partial curve]",,"inconclusive: 35.5 µM [cytotoxic, partial curve, poor fit]"
COc1ccc(Cl)cc1C(=O)NCCc1ccc(S(=O)(=O)NC(=O)NC2CCCCC2)cc1,"inactive and inconclusive: 16.4 µM [cytotoxic, partial curve]","inactive and inconclusive: 23.1 µM [cytotoxic, single point]",inactive: -4.38%,
CCCC(=O)OC[C@@H](OC(=O)CCC)[C@@H](OC(=O)CCC)[C@H](Cn1c2nc(=O)[nH]c(=O)c-2nc2cc(C)c(C)cc21)OC(=O)CCC,"inconclusive: 33.5 µM [cytotoxic, single point]","inconclusive: 29.9 µM [cytotoxic, single point]",inactive: -8.77%,
